# Experimental data as given in patent publication US10299477B2 (priority 2015, dated 2019).
# Tests used:
# Assay type in all cases: in vivo
# [1] = tested on: Puccinia recondita; test: Test Example E: Brown rust on wheat; conditions: for Test E (control value class, brown rust on wheat): in vivo; for Test E control value (brown rust on wheat): preventive, control value class
# Description: [Test Example E] Brown Rust on Wheat
# [2] = tested on: Blumeria graminis f sp. hordei; test: Test Example D: Powdery mildew on barley; conditions: for Test D (control value class, powdery mildew on barley): in vivo; for Test D control value (powdery mildew on barley): preventive, control value class
# Description: [Test Example D] Powdery Mildew on Barley
# After the sprayed dilutions were dried, conidia of Blumeria graminis f sp. hordei were inoculated to the plants by shaking off.
# [3] = tested on: Plasmopara viticola; test: Test Example G: Downy mildew on vine; conditions: for Test G (control value class, downy mildew on vine): 250 ppm, sprayed 2.5 ml/pot before inoculation; for Test G control value (downy mildew on vine): 250 ppm spray (2.5 ml/pot), preventive, control value class; for Test G (control value class): 250 ppm spray; for Test G control value: 250 ppm sprayed before inoculation
# Description: [Test Example G] Downy Mildew on Vine
# Seeds of a test plant (grape variety: Neomuscat) were planted followed by cultivating until three to four first leaves appeared. […] After the sprayed dilutions were dried, a zoosporangia suspension (1-2×10^4 zoosporangia/ml) of Plasmopara viticola was inoculated to the plants by spraying.
# [4] = tested on: Botrytis cinerea; test: Test Example B: Gray mold on tomato; conditions: for Test B (control value class, gray mold on tomato): in vivo; for Test B control value (gray mold on tomato): preventive, control value class
# Description: [Test Example B] Gray Mold on Tomato
# Seeds of a test plant (tomato variety: Oogata Fukuju) were planted followed by cultivating until three to five first leaves (true leaves) appeared.
# [5] = tested on: Alternaia brassicicola; test: Test Example C: Alternaria sooty spot on cabbage; conditions: for Test C (control value class, Alternaria sooty spot on cabbage): in vivo; for Test C control value (Alternaria sooty spot on cabbage): preventive, control value class; for Test C (control value class) / Test C control value: Alternaria sooty spot on cabbage
# Description: [Test Example C] Alternaria Sooty Spot on Cabbage
# Seeds of a test plant (cabbage variety: Shikidori) were planted followed by cultivating until the cotyledons extended.
# [6] = evaluated 7-10 days after inoculation
# [7] = brown rust on wheat, Puccinia recondita, 250 ppm spray
# [8] = powdery mildew on barley, 250 ppm spray
# [9] = downy mildew on vine, Plasmopara viticola, 7-10 days after inoculation
# [10] = gray mold on tomato, Botrytis cinerea, 250 ppm spray
# [11] = Downy mildew on vine, 7-10 days after inoculation
structure (smiles),measurement,setting,value
Cc1cc(-c2cccc(F)c2F)c(-c2c(F)cc(F)cc2F)n(C)c1=O [Compound 564],"Test E (control value class, brown rust on wheat)",[1],H (H shows more than 50% of control values)
same,"Test D (control value class, powdery mildew on barley)",[2],H (H shows more than 50% of control values)
same,"Test G (control value class, downy mildew on vine)",[3]; [6],H (H shows more than 50% of control values)
same,"Test B (control value class, gray mold on tomato)",[4],H (H shows more than 50% of control values)
same,"Test C (control value class, Alternaria sooty spot on cabbage)",[5],H (H shows more than 50% of control values)
CCn1c(-c2c(F)cc(OC)cc2F)c(-c2cccc(F)c2Cl)cc(Br)c1=O [Compound 656],"Test E (control value class, brown rust on wheat)",[1],H (H shows more than 50% of control values)
same,"Test D (control value class, powdery mildew on barley)",[2],H (H shows more than 50% of control values)
same,"Test G (control value class, downy mildew on vine)",[3]; [6],L (L shows 50% or less of control values)
same,"Test B (control value class, gray mold on tomato)",[4],H (H shows more than 50% of control values)
same,"Test C (control value class, Alternaria sooty spot on cabbage)",[5],H (H shows more than 50% of control values)
CCn1c(-c2c(F)cc(OC)cc2F)c(-c2cccc(OC)c2Cl)cc(C)c1=O [Compound 644],"Test E (control value class, brown rust on wheat)",[1],H (H shows more than 50% of control values)
same,"Test D (control value class, powdery mildew on barley)",[2],H (H shows more than 50% of control values)
same,"Test G (control value class, downy mildew on vine)",[3]; [6],H (H shows more than 50% of control values)
same,"Test B (control value class, gray mold on tomato)",[4],H (H shows more than 50% of control values)
same,"Test C (control value class, Alternaria sooty spot on cabbage)",[5],H (H shows more than 50% of control values)
Cn1c(-c2c(F)cccc2F)c(-c2cc(OC3CCCC3)ccc2Cl)ccc1=O [Compound 288],Test E control value (brown rust on wheat),[1]; 250 ppm spray,L (L shows 50% or less of control values)
same,Test D control value (powdery mildew on barley),[2]; 250 ppm spray,L (L shows 50% or less of control values)
same,Test G control value (downy mildew on vine),[3]; 7-10 days after inoculation,L (L shows 50% or less of control values)
same,Test B control value (gray mold on tomato),[4]; 250 ppm spray,H (H shows more than 50% of control values)
same,Test C control value (Alternaria sooty spot on cabbage),[5]; 250 ppm spray,L (L shows 50% or less of control values)
Cn1c(-c2c(F)cccc2F)c(-c2cc(F)ccc2Cl)cc(Cl)c1=O [Compound 362],Test E control value (brown rust on wheat),[1]; 250 ppm spray,H (H shows more than 50% of control values)
same,Test D control value (powdery mildew on barley),[2]; 250 ppm spray,H (H shows more than 50% of control values)
same,Test G control value (downy mildew on vine),[3]; 7-10 days after inoculation,H (H shows more than 50% of control values)
same,Test B control value (gray mold on tomato),[4]; 250 ppm spray,H (H shows more than 50% of control values)
same,Test C control value (Alternaria sooty spot on cabbage),[5]; 250 ppm spray,H (H shows more than 50% of control values)
O=c1ccc(-c2cc(Cl)ccc2F)c(-c2c(F)cccc2F)n1CC(F)F [Compound 539],Test E (control value class),[1]; [7],H (H shows more than 50% of control values)
same,Test D (control value class),[2]; [8],H (H shows more than 50% of control values)
same,Test G (control value class),[3]; [9],H (H shows more than 50% of control values)
same,Test B (control value class),[4]; [10],H (H shows more than 50% of control values)
same,Test C (control value class),[5]; 250 ppm spray,H (H shows more than 50% of control values)
COc1cccc(-c2cc(Cl)c(=O)n(C)c2-c2c(F)cc(F)cc2F)c1Cl [Compound 787],Test E (control value class),"[1]; Brown rust on wheat, control value=100{1-(n/3)}",H (H shows more than 50% of control values)
same,Test D (control value class),"[2]; Powdery mildew on barley, control value=100{1-(n/3)}",L (L shows 50% or less of control values)
same,Test G (control value class),"[3]; Downy mildew on vine, 2.5 ml/pot, evaluated 7-10 days after inoculation",L (L shows 50% or less of control values)
same,Test B (control value class),"[4]; Gray mold on tomato, control value=100{1-(n/3)}",H (H shows more than 50% of control values)
same,Test C (control value class),[5]; control value=100{1-(n/3)},H (H shows more than 50% of control values)
CCn1c(-c2c(F)cccc2F)c(-c2cc(OCC3CC3)ccc2Cl)cc(Cl)c1=O [Compound 221],Test E control value (brown rust on wheat),[1]; 250 ppm spray,H (H shows more than 50% of control values)
same,Test D control value (powdery mildew on barley),[2]; 250 ppm spray,H (H shows more than 50% of control values)
same,Test G control value (downy mildew on vine),[3]; 7-10 days after inoculation,L (L shows 50% or less of control values)
same,Test B control value (gray mold on tomato),[4]; 250 ppm spray,H (H shows more than 50% of control values)
same,Test C control value (Alternaria sooty spot on cabbage),[5]; 250 ppm spray,H (H shows more than 50% of control values)
CCCCn1c(-c2c(F)cccc2F)c(-c2cc(OC)ccc2Cl)cc(Br)c1=O [Compound 396],Test E (control value class),[1]; [7],L (L shows 50% or less of control values)
same,Test D (control value class),[2]; [8],L (L shows 50% or less of control values)
same,Test G (control value class),[3]; [9],L (L shows 50% or less of control values)
same,Test B (control value class),[4]; [10],L (L shows 50% or less of control values)
same,Test C (control value class),[5]; 250 ppm spray,L (L shows 50% or less of control values)
"COc1ccc(Cl)c(-c2cc(Br)c(=O)n(CC(F)F)c2-c2c(F)cccc2F)c1 [Compound 198, 3-bromo-5-(2-chloro-5-methoxyphenyl)-1-(2,2-difluoroethyl)-6-(2,6-difluorophenyl)pyridine-2(1H)-one]",Test E control value (brown rust on wheat),[1]; 250 ppm spray,H (H shows more than 50% of control values)
same,Test D control value (powdery mildew on barley),[2]; 250 ppm spray,H (H shows more than 50% of control values)
same,Test G control value (downy mildew on vine),[3]; 7-10 days after inoculation,H (H shows more than 50% of control values)
same,Test B control value (gray mold on tomato),[4]; 250 ppm spray,H (H shows more than 50% of control values)
same,Test C control value (Alternaria sooty spot on cabbage),[5]; 250 ppm spray,H (H shows more than 50% of control values)
COc1cc(F)c(-c2c(-c3cc(F)cc(F)c3F)cc(Cl)c(=O)n2C)c(F)c1 [Compound 549],Test E (control value class),[1]; [7],H (H shows more than 50% of control values)
same,Test D (control value class),[2]; [8],H (H shows more than 50% of control values)
same,Test G (control value class),[3]; [9],L (L shows 50% or less of control values)
same,Test B (control value class),[4]; [10],H (H shows more than 50% of control values)
same,Test C (control value class),[5]; 250 ppm spray,H (H shows more than 50% of control values)
CCn1c(-c2c(F)cccc2F)c(-c2cc(OCC(F)F)ccc2Cl)ccc1=O [Compound 277],Test E control value (brown rust on wheat),[1]; 250 ppm spray,H (H shows more than 50% of control values)
same,Test D control value (powdery mildew on barley),[2]; 250 ppm spray,H (H shows more than 50% of control values)
same,Test G control value (downy mildew on vine),[3]; 7-10 days after inoculation,H (H shows more than 50% of control values)
same,Test B control value (gray mold on tomato),[4]; 250 ppm spray,H (H shows more than 50% of control values)
same,Test C control value (Alternaria sooty spot on cabbage),[5]; 250 ppm spray,H (H shows more than 50% of control values)
CCn1c(-c2c(F)cccc2F)c(-c2cc(OCC(F)(F)F)ccc2Cl)ccc1=O [Compound 262],Test E control value (brown rust on wheat),[1]; 250 ppm spray,H (H shows more than 50% of control values)
same,Test D control value (powdery mildew on barley),[2]; 250 ppm spray,H (H shows more than 50% of control values)
same,Test G control value (downy mildew on vine),[3]; 7-10 days after inoculation,H (H shows more than 50% of control values)
same,Test B control value (gray mold on tomato),[4]; 250 ppm spray,H (H shows more than 50% of control values)
same,Test C control value (Alternaria sooty spot on cabbage),[5]; 250 ppm spray,H (H shows more than 50% of control values)
Cn1c(-c2ncc(Cl)cc2Cl)c(-c2ccccc2)ccc1=O [Compound 2],Test E control value,[1]; Brown rust on wheat,H (H shows more than 50% of control values)
same,Test D control value,[2]; Powdery mildew on barley,H (H shows more than 50% of control values)
same,Test G control value,[3]; [11],H (H shows more than 50% of control values)
same,Test B control value,[4]; Gray mold on tomato,H (H shows more than 50% of control values)
same,Test C control value,[5],H (H shows more than 50% of control values)
CCn1c(-c2c(F)cccc2Br)c(-c2cc(OC)cc(OC)c2Cl)ccc1=O [Compound 177],Test E control value,[1]; Brown rust on wheat,H (H shows more than 50% of control values)
same,Test D control value,[2]; Powdery mildew on barley,H (H shows more than 50% of control values)
same,Test G control value,[3]; [11],H (H shows more than 50% of control values)
same,Test B control value,[4]; Gray mold on tomato,H (H shows more than 50% of control values)
same,Test C control value,[5],H (H shows more than 50% of control values)
CCn1c(-c2c(F)cccc2F)c(-c2cc(OCOC)ccc2Cl)cc(Br)c1=O [Compound 126],Test E control value,[1]; Brown rust on wheat,H (H shows more than 50% of control values)
same,Test D control value,[2]; Powdery mildew on barley,H (H shows more than 50% of control values)
same,Test G control value,[3]; [11],H (H shows more than 50% of control values)
same,Test B control value,[4]; Gray mold on tomato,H (H shows more than 50% of control values)
same,Test C control value,[5],H (H shows more than 50% of control values)
